One molecule from patent publication US20190055527A1 (KYUSHU UNIVERSITY NATIONAL UNIVERSITY, published 2019) can be followed below.

In the test the target is T1, PCNA from Pyrococcus furiosus (Pyrococcus furiosus, UniProt O73947 1-249).
T1 construct: Wild-type PfuPCNA immobilised on a CM5 chip by amine coupling; also called PfuPCNA
T1 sequence (looked up): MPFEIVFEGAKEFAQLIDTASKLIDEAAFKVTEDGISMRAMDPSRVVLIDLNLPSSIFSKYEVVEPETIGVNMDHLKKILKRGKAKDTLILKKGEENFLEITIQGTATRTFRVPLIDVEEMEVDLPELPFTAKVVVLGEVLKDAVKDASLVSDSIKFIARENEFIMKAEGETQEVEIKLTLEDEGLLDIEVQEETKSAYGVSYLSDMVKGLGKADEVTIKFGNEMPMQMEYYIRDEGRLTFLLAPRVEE
The test is described as follows: SPR (BIAcore J), PfuPCNA immobilised on CM5 chip; Kd of Taq94 against Kd of Taq81 to Taq85. The protocol:
In the surface plasmon resonance (SPR) analysis, BIAcore J (manufactured by BIACORE) was used. A PCNA from Pyrococcus furiosus (J. Bacteriology, 181, 6591-6599, 1999: hereinafter referred to as PfuPCNA) was immobilized on a CM5 sensor chip (manufactured by GE Healthcare) by amine coupling, and the measurement was carried out under the conditions of 25° C., a flow rate of 30 μL/minutes, and a solution E (10 mM Tris-HCl, 50 mM KCl, 1.5 mM MgCl₂, pH 8.3). A sample solution of Taq81 to Taq85 diluted to 10, 20, 40, 80, 160, or 320 nM or a sample solution of Taq94 diluted to 125 nM, 250 nM, 500 nM, 1 μM, or 2 μM was each added for 2 minutes. The sensorgrams obtained were analyzed by BIA evaluation program, and the dissociation constants (Kd) between Taq81 to Taq85 and PfuPCNA and between Taq94 and PfuPCNA were calculated.
A general note: Surface plasmon resonance follows binding to a sensor surface in real time, without labels.

B1: Taq94 (Taq-L15-PIP) (enzyme)
chain: MRGMLPLFEPKGRVLLVDGHHLAYRTFHALKGLTTSRGEPVQAVYGFAKSLLKALKEDGDAVIVVFDAKAPSFRHEAYGGYKAGRAPTPEDFPRQLALIKELVDLLGLARLEVPGYEADDVLASLAKKAEKEGYEVRILTADKDLYQLLSDRIHALHPEGYLITPAWLWEKYGLRPDQWADYRALTGDESDNLPGVKGIGEKTARKLLEEWGSLEALLKNLDRLKPAIREKILAHMDDLKLSWDLAKVRTDLPLEVDFAKRREPDRERLRAFLERLEFGSLLHEFGLLESPKALEEAPWPPPEGAFVGFVLSRKEPMWADLLALAAARGGRVHRAPEPYKALRDLKEARGLLAKDLSVLALREGLGLPPGDDPMLLAYLLDPSNTTPEGVARRYGGEWTEEAGERAALSERLFANLWGRLEGEERLLWLYREVERPLSAVLAHMEATGVRLDVAYLRALSLEVAEEIARLEAEVFRLAGHPFNLNSRDQLERVLFDELGLPAIGKTEKTGKRSTSAAVLEALREAHPIVEKILQYRELTKLKSTYIDPLPDLIHPRTGRLHTRFNQTATATGRLSSSDPNLQNIPVRTPLGQRIRRAFIAEEGWLLVALDYSQIELRVLAHLSGDENLIRVFQEGRDIHTETASWMFGVPREAVDPLMRRAAKTINFGVLYGMSAHRLSQELAIPYEEAQAFIERYFQSFPKVRAWIEKTLEEGRRRGYVETLFGRRRYVPDLEARVKSVREAAERMAFNMPVQGTAADLMKLAMVKLFPRLEEMGARMLLQVHDELVLEAPKERAEAVARLAKEVMEGVYPLAVPLEVEVGIGEDWLSAKESGSGSSGSGSGSGSGKQATLFDFLKK
notes: Taq DNA polymerase, 15-residue Ser/Gly linker, PfuRFCL PIP box at the C-terminus; also called DNA polymerase variant Taq94
For B1, the “fold of the dissociation constants of Taq81 to Taq85” value was approximately 10 fold.
